Measurements reported in patent US10465009B2, “BCMA antigen binding proteins” (Amgen Inc., priority 2012, dated 2019).

What was measured:
[1] = Differential Scanning calorimetry (DSC) thermostability; assay type: physicochemical; conditions: full-length antibody, Table 11
Excerpt: Differential Scanning calorimetry (DSC) was used to compare the thermostability of parent and engineered antibodies. DSC is a thermodynamical tool for direct assessment of the heat energy uptake, which occurs in a sample within a regulated increase or decrease in temperature. DSC is commonly employed to assess the thermal and conformational stability of a protein. The melting temperature of a protein, or of individual domains, can be obtained from the DSC profile, and if the reaction is reversible the thermodynamic parameters of the unfolding can be determined. A protein is considered more thermostable when the Tm (transition temperature) is higher. When thermostability data are compared to other bioanalytical methods, like size exclusion chromatography (SEC), it has been observed that a correlation between greater thermostability (higher Tm) and decreased aggregation. […]
DSC was carried out using a MicroCal™ VP-Capillary DSC system (GE Healthcare, Piscataway, N.J.) equipped with an auto-sampler. The temperature differences between the reference and sample cells are continuously measured, and calibrated to power units. […] The solution reference and protein samples were measured in a 135 μL cell from 20 to 110° C. at a heating rate of 60° C./hour. […] Heat capacity during protein melting was calculated by normalizing over protein concentration.

[2] = tested on: CD138+ plasma cells of multiple myeloma patient samples; experiment: pHrodo internalization assay on multiple myeloma patient samples; assay type: cell-based, human; conditions: pHrodo label, 4 hours at 37° C.
Procedure: Samples were acquired from commercial sources (AllCells, Conversant, Proteogenex) to acquire approximately 1×10^6 plasma cells per sample. Individual multiple myeloma (MM) samples were thawed gently at room temp (RT). The thawed cells were added dropwise into 4 ml of 50% FBS (fetal bovine serum) RPMI buffer at RT. 3 ml of 10% FBS RPMI was added to the cell suspension. The cell suspension was gently inverted to mix and centrifuged at low speed to pellet cells. The media was aspirated and the cell pellet was resuspended in 1% FBS PBS (Phosphate Buffered Saline). The cells were manually counted on a hemocytometer. The cells were added to 10 FBS RPMI and allowed to recover in an incubator for 1 hr at 37° C. with 5% CO2. Cell viability was assessed as follows. Cells from primary MM and H929 cell lines were plated at 200,000 cells per well in a 96 well plate with fresh 10% FBS RPMI buffer with 5 wells per sample. The plate was centrifuged to pellet cells and media aspirated and resuspended in PBS three times. Cells were stained with Violet Live/Dead cell stain (Molecular Probes-L34955) per manufacturer protocol and incubated at RT in the dark for 30 minutes. […] Internalization/Immunophenotype (IP) was assessed as follows. […] Cells from each well were assessed using a LSRII (BD Bioscience) and FCS files generated. […]

[3] = Isoelectric point of whole antibody; assay type: physicochemical

B1: 2A1CV4: 2A1-HC: R17G, T24A, C107A; heavy chain SEQ ID NO:309, light chain SEQ ID NO:312 (antibody)
heavy: EVQLVESGGGLVKPGGSLRLSCAASGFTFGDYALSWFRQAPGKGLEWVGVSRSKAYGGTTDYAASVKGRFTISRDDSKSFAYLQMNSLKTEDTAVYYCASSGYSSGWTPFDYWGQGTLVTVSS[omitted - human IgG1 constant region]
light: QSVLTQPPSASGTPGQRVTISCSGSSSNIGSNTVNWYQQLPGTAPKLLIFNYHQRPSGVPDRFSGSKSGSSASLAISGLQSEDEADYYCAAWDDSLNGWVFGGGTKLTVLGQPKAAPSVTLFPPSSEELQANKATLVCLISDFYPGAVTVAWKADSSPVKAGVETTTPSKQSNNKYAASSYLSLTPEQWKSHRSYSCQVTHEGSTVEKTVAPTECS
[1]
  Tm: 75 °C
[2]
  internalization in multiple myeloma patient samples: effectively internalized in all 29 multiple myeloma patient samples
[3]
  pI (Whole): 8.39
